# Measured values taken from a collection of fitness landscapes (doi:10.1126/science.1257360).
# Some of the results follow.
# B1: PhoQ; a variant is named by its letters at X, in order, P23837 (parent)
# chain: MKKLLRLFFPLSLRVRFLLATAAVVLVLSLAYGMVALIGYSVSFDKTTFRLLRGESNLFYTLAKWENNKLHVELPENIDKQSPTMTLIYDENGQLLWAQRDVPWLMKMIQPDWLKSNGFHEIEADVNDTSLLLSGDHSIQQQLQEVREDDDDAEMTHSVAVNVYPATSRMPKLTIVVVDTIPVELKSSYMVWSWFIYVLSANLLLVIPLLWVAAWWSLRPIEALAKEVRELEEHNRELLNPATTRELTSLVRNLNRLLKSERERYDKYRTTLTDLTHSLKTPLXXLQXXLRSLRSEKMSVSDAEPVMLEQISRISQQIGYYLHRASMRGGTLLSRELHPVAPLLDNLTSALNKVYQRKGVNISLDISPEISFVGEQNDFVEVMGNVLDNACKYCLEFVEISARQTDEHLYIVVEDDGPGIPLSKREVIFDRGQRVDTLRPGQGVGLAVAREITEQYEGKIVAGESMLGGARMEVIFGRQHSAPKDE
# Variants of: B1
# Assay: enrichment ratio after two sorts for PhoP signalling (ratio (wild type AVST 3.29)); higher = more functional
# Conditions: with PhoP (E. coli)
row,Variant,enrichment ratio
1,HCLG,≤ 0.25
2,YWGD,≤ 0.25
3,YYTT,≤ 0.25
4,HPNL,≤ 0.25
5,GMRK,≤ 0.25
6,IGQI,≤ 0.25
7,SCSD,≤ 0.25
8,EAIP,≤ 0.25
9,IVIY,≤ 0.25
10,MENT,≤ 0.25
11,EEPS,≤ 0.25
12,NTCT,≤ 0.25
13,INEG,≤ 0.25
14,HTPS,≤ 0.25
15,NQEI,≤ 0.25
16,ETLY,≤ 0.25
17,GAHH,≤ 0.25
18,NAYH,≤ 0.25
19,HVKG,≤ 0.25
20,AYHM,≤ 0.25
21,WPHV,≤ 0.25
22,DMTC,≤ 0.25
23,KFWR,1.07
24,QLPD,≤ 0.25
25,SGSI,15.9

row,Variant,enrichment ratio
1,IDCE,≤ 0.25
2,LRLC,≤ 0.25
3,ACCD,≤ 0.25
4,ELVT,≤ 0.25
5,RQHG,≤ 0.25
6,DPKD,≤ 0.25
7,QCCM,≤ 0.25
8,PKQA,≤ 0.25
9,GRDN,≤ 0.25
10,DKHE,≤ 0.25
11,ISWI,≤ 0.25
12,NHNY,≤ 0.25
13,RFFK,≤ 0.25
14,QIIC,≤ 0.25
15,YDIS,1.07
16,KNSL,≤ 0.25
17,QYSA,≤ 0.25
18,WDNT,≤ 0.25
19,ILHT,≤ 0.25
20,AWCR,≤ 0.25
21,ADWI,≤ 0.25
22,YIIK,≤ 0.25
23,WYSR,≤ 0.25
24,TRIT,≤ 0.25
25,RRKP,≤ 0.25

row,Variant,enrichment ratio
1,HYAH,≤ 0.25
2,VGPK,≤ 0.25
3,AGFQ,≤ 0.25
4,QENM,≤ 0.25
5,EAEL,≤ 0.25
6,QCTI,≤ 0.25
7,AIYM,≤ 0.25
8,GYES,≤ 0.25
9,PRNQ,≤ 0.25
10,AICY,10.5
11,ECHP,≤ 0.25
12,KDCN,≤ 0.25
13,EVGH,≤ 0.25
14,IDQP,≤ 0.25
15,NLVL,≤ 0.25
16,QFTC,≤ 0.25
17,RDPL,≤ 0.25
18,ENSK,≤ 0.25
19,INAH,≤ 0.25
20,ERNH,≤ 0.25
21,LLAC,≤ 0.25
22,YDTC,≤ 0.25
23,MHAL,≤ 0.25
24,PGID,≤ 0.25
25,GHDW,≤ 0.25

row,Variant,enrichment ratio
1,GKGF,≤ 0.25
2,MVFE,≤ 0.25
3,AFIW,≤ 0.25
4,YYTK,≤ 0.25
5,VILY,≤ 0.25
6,EEIA,≤ 0.25
7,YSLS,7.49
8,ACGG,4.87
9,LNTD,≤ 0.25
10,DWMF,≤ 0.25
11,PPNY,≤ 0.25
12,TSIF,0.479
13,PTHY,≤ 0.25
14,ERIN,≤ 0.25
15,RDEP,≤ 0.25
16,FFFR,≤ 0.25
17,FMIA,≤ 0.25
18,FMTA,≤ 0.25
19,HQFP,≤ 0.25
20,QDNS,≤ 0.25
21,WIHY,≤ 0.25
22,KLQW,≤ 0.25
23,IVRH,≤ 0.25
24,TKVQ,11.7
25,YAWR,≤ 0.25

row,Variant,enrichment ratio
1,ARSK,≤ 0.25
2,QFQK,≤ 0.25
3,RWFA,≤ 0.25
4,EETF,≤ 0.25
5,SCNN,0.322
6,VRKS,≤ 0.25
7,GGQL,≤ 0.25
8,RSLG,≤ 0.25
9,SGDF,≤ 0.25
10,QTCM,≤ 0.25
11,GPRH,≤ 0.25
12,DIFS,≤ 0.25
13,WGFG,≤ 0.25
14,SPGQ,≤ 0.25
15,WSTL,≤ 0.25
16,NFRG,≤ 0.25
17,SSKV,≤ 0.25
18,QTLS,0.448
19,YNQW,≤ 0.25
20,ERHL,≤ 0.25
21,PLVN,≤ 0.25
22,WKKF,≤ 0.25
23,PTSD,3.64
24,MAPW,≤ 0.25
25,LIWP,≤ 0.25

row,Variant,enrichment ratio
1,VASE,≤ 0.25
2,NWKW,≤ 0.25
3,SSTQ,9.81
4,HYKC,≤ 0.25
5,QQTI,≤ 0.25
6,CVIT,≤ 0.25
7,REAP,≤ 0.25
8,ELWI,≤ 0.25
9,SWAM,≤ 0.25
10,RLTK,≤ 0.25
11,RMDC,≤ 0.25
12,AKWW,≤ 0.25
13,MGLD,≤ 0.25
14,LMKN,≤ 0.25
15,HPYQ,≤ 0.25
16,STVC,1.73
17,SWMR,≤ 0.25
18,AYVF,≤ 0.25
19,AKLQ,41.4
20,FGWF,0.428
21,HRIA,≤ 0.25
22,WISC,≤ 0.25
23,EGTF,≤ 0.25
24,GISD,≤ 0.25
25,NMFL,≤ 0.25

row,Variant,enrichment ratio
1,PISN,≤ 0.25
2,LPKT,≤ 0.25
3,EFYI,≤ 0.25
4,LTPR,≤ 0.25
5,AYLV,3.08
6,TYNT,≤ 0.25
7,GIQV,≤ 0.25
8,WPDF,≤ 0.25
9,SYNY,≤ 0.25
10,YEVL,≤ 0.25
11,GEPT,≤ 0.25
12,IVVC,≤ 0.25
13,NAMG,≤ 0.25
14,WPQC,≤ 0.25
15,RDYE,≤ 0.25
16,QRNG,≤ 0.25
17,FARM,≤ 0.25
18,YHFG,≤ 0.25
19,HINW,≤ 0.25
20,TPSP,≤ 0.25
21,IYNN,≤ 0.25
22,SIQW,≤ 0.25
23,THFA,≤ 0.25
24,MEST,5.63
25,SSTC,10.3

row,Variant,enrichment ratio
1,KLHL,≤ 0.25
2,EYVA,≤ 0.25
3,HDVE,≤ 0.25
4,VCTE,≤ 0.25
5,SYTL,≤ 0.25
6,MKGI,≤ 0.25
7,REWW,≤ 0.25
8,LGHI,4.08
9,TLRT,≤ 0.25
10,TAFV,≤ 0.25
11,NYMM,≤ 0.25
12,DFPP,≤ 0.25
13,LQNT,≤ 0.25
14,WNGR,≤ 0.25
15,FNHV,≤ 0.25
16,WTRP,≤ 0.25
17,DNRR,≤ 0.25
18,AQDP,≤ 0.25
19,ISKA,≤ 0.25
20,TDVL,2.12
